Measurements reported in PubChem BioAssay AID662 (National Center for Advancing Translational Sciences (NCATS), 2007).
In all, about 71,000 compounds went through this assay and about 1,800 (2.5%) were called active. Inconclusive means that the source gave no clear call. Such entries were picked first, then a sample of the others. Calls come from the whole dose curve; as a rule, active = well fitted activation curve with a large enough effect in the signal ratio, with a control signal flat (not every such curve was filed as active); inconclusive = small, poorly fitted or top-dose-only effect, or effect the other way, or a change in a side signal; inactive = flat fitted curve, though single readings scatter; the % refers to the signal ratio. Potencies of inconclusive entries are doubtful fits and often do not repeat.
Potency is the fitted concentration of half-maximal effect; tags give direction and shape of the fitted curve.

Test: Cell signaling CRE-BLA (Fsk stim); for activity change, negative = inhibition: % of control where 0% means no effect
Details: CHO CRE-bla reporter (cAMP response element driving beta-lactamase), forskolin EC10, beta-lactamase ratio; activity change, negative = inhibition: at 38.2 µM (top of the series) unless noted
In short: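 AC50 values, positive or negative, reflect shifts in EC10 NKH 477-induced CRE-bla reporter activity in CHO cells. Incubation lasted 3 h at 37 °C before CCF4 substrate (2 h, room temperature) and ratiometric 460/530 nm reading.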
In the case of `CCN(CCCNC(=O)c1[nH]c(C)c(C(C)=O)c1C)c1cccc(C)c1`, the activity change, negative = inhibition is reported as inconclusive: 9.71%.
With `O=C(CN1C(=O)COc2ccccc21)N(Cc1cccnc1)Cc1cccc(F)c1` the “activity change, negative = inhibition” value was inactive: -8.32%.
For `CCOC(=O)CCCCC(=O)c1[nH]c(=O)[nH]c1Cn1cnc2ccccc21`, the “activity change, negative = inhibition” value was inactive: -5.38%.
For `O=c1cc(-c2cccc(O)c2)oc2c(O)c(O)ccc12`, the Potency was inconclusive: 3.16 µM [rising, full curve, poor fit].
With `COc1ccc(-n2c3c(cc(C(=O)N4CCN(CCO)CC4)c2=O)C(=O)CC(C)(C)C3)cc1` the activity change, negative = inhibition was inconclusive: 28.2% [at 7.6 µM].
For `Cc1ccc(CC23CN4CCN(CC(C4)C2O)C3)c(C)c1` (configuration not stated), the activity change, negative = inhibition was inconclusive: -11.3%.
With `COc1ccc(-c2noc(CN(C)S(=O)(=O)c3ccc(Cl)cc3)n2)cc1OC` the “activity change, negative = inhibition” value was inactive: 5.83%.
With `Cc1ccc(Nc2nc(N)nc(CSc3nnnn3-c3ccccc3)n2)cc1` the activity change, negative = inhibition was inconclusive: 17.2%.
With `COc1ccccc1-n1c(SCC(=O)N2CCCC2)nc2cccnc21` the activity change, negative = inhibition was inconclusive: 13.3%.
For `CCCCNC(=O)c1nc2ncc(Br)cn2n1`, the activity change, negative = inhibition was inconclusive: -1.25% [at 7.6 µM].
In the case of `COc1cc2oc(-c3ccccc3)cc(=O)c2cc1O`, the activity change, negative = inhibition is reported as inconclusive: -3.93%.
With `Cc1cc(C)n2nc(SCC(=O)Nc3c(C)nn(-c4ccccc4)c3C)nc2n1` the “activity change, negative = inhibition” value was inactive: 13%.
For `CCOCC(=O)Nc1cc(-c2cn3cccnc3n2)ccc1C`, the Potency was inconclusive: 0.0158 µM [rising, full curve, poor fit].
For `CCc1cc2c3c(c(=O)oc2cc1OC)CCCC3`, the Potency was inconclusive: 7.94 µM [rising, partial curve].
With `O=C(Oc1ccccc1)N1CCC2(CC1)CCN(c1ncccn1)CC2` the activity change, negative = inhibition was inconclusive: -1.87%.
For `Cc1ccccc1C1CC(c2ccccc2OC(F)F)Nc2ncnn21` (configuration not stated), the Potency was inconclusive: 10 µM [rising, partial curve, poor fit].
For `CCOC(=O)c1ccccc1NC(=O)C1COc2ccccc2O1` (configuration not stated), the Potency was inconclusive: 10 µM [rising, partial curve].
With `CC(=O)c1c(N=CN(C)C)nc(C)nc1-c1ccccc1` the Potency was inconclusive: 12.6 µM [rising, partial curve].
In the case of `CCOC(=O)C(CCC#N)(CCC#N)C(=O)OCC`, the activity change, negative = inhibition is reported as inconclusive: 25%.
For `COc1ccc(/C=C\C(=O)Nc2ccccc2C(=O)O)cc1OC`, the activity change, negative = inhibition was “inactive”.
For `Cc1cnc(CNc2nc(-c3ccoc3)nc3ccccc23)cn1`, the Potency was active: 10 µM.
In the case of `CCOC(=O)c1c(N)nn(C(=O)CC)c1-c1ccccc1`, the Potency is reported as inconclusive: 3.98 µM [rising, full curve].
With `Cc1cccc(C(=O)N2CCC(n3nnc4cc(F)ccc43)CC2)c1` the “activity change, negative = inhibition” value was inactive: 4.11%.
For `COc1ccc(-c2cc(C(=O)N3CCCc4ccccc43)no2)cc1`, the activity change, negative = inhibition was inconclusive: -14.2%.
With `CCN(CC)Cc1cc(CC(C(N)=O)C(N)=O)ccc1OC` the “activity change, negative = inhibition” value was inactive: -21.5%.
For `Cc1ccc(CNc2ccc3c(c2)ncn3C)cc1`, the activity change, negative = inhibition was inconclusive: 12.4% [cytotoxic].
For `CCOC(=O)c1c(NC(=O)Cn2c(C)nc3ccccc32)sc2c1CCC2`, the Potency was inconclusive: 12.6 µM [rising, partial curve].
With `COC(=O)c1ccc(NC(=O)CSc2n[nH]c(-c3ccncc3)n2)cc1` the Potency was inconclusive: 2 µM [rising, partial curve, poor fit].
With `Cc1cc(N2CCC3(CC2)OCCO3)n2nc(C)c(-c3ccc(Cl)cc3)c2n1` the Potency was inconclusive: 1.58 µM [rising, partial curve].
With `COc1ccc(C2=C(O)C(C)N(c3ccccc3)C2=N)cc1OC` (configuration not stated) the activity change, negative = inhibition was inconclusive: -27.7%.
In the case of `CCC(c1nnnn1Cc1ccco1)N(Cc1cc2cc(OC)ccc2[nH]c1=O)C1CCCCC1` (configuration not stated), the Potency is reported as inconclusive: 20 µM [rising, single point].
With `Cc1cccc(N2CCN(C(=O)CSCc3c(C)noc3C)CC2)c1C` the activity change, negative = inhibition was inconclusive: -4.11%.
For `N#Cc1nc(COc2ccc(F)cc2)oc1NCCN1CCOCC1`, the “activity change, negative = inhibition” value was inactive: 4.46%.
With `CCn1c(=O)cc(SCC(=O)N2CCN(c3ccccc3OC)CC2)c2ccccc21` the Potency was inconclusive: 12.6 µM [rising, partial curve].
For `Cc1c(CC(C)(C)C(=O)O)n(Cc2ccc(Cl)cc2)c2ccc(F)cc12`, the activity change, negative = inhibition was inconclusive: -8.38%.
With `CC(=O)Nc1ccc(-c2cc(C(=O)O)c3cc4ccccc4cc3n2)cc1` the activity change, negative = inhibition was inactive: -5.44% [at 7.6 µM].
For `COC(=O)c1cn(NC(=O)CC2CCCCC2)c(=O)c2ccccc12`, the activity change, negative = inhibition was inconclusive: -19%.
In the case of `Cc1noc(/C=C/c2ccco2)c1S(=O)(=O)N1CCC(C(=O)N2CCc3ccccc3C2)CC1`, the “activity change, negative = inhibition” value is reported as inactive: 3.85%.
With `CCc1cccc(NC(=O)CS(=O)Cc2nc(-c3ccc(C)cc3)oc2C)c1` (configuration not stated) the Potency was inconclusive: 10 µM [falling, partial curve].
In the case of `Nc1ccc2oc(-c3cccc(Br)c3)nc2c1`, the activity change, negative = inhibition is reported as inconclusive: 29.4%.
With `Cn1c(SCC(=O)NC2CCCC2)nnc1-c1ccc(S(=O)(=O)N2CCOCC2)cc1` the “activity change, negative = inhibition” value was inactive: -6.77%.
In the case of `COc1cccc(Cn2c(=O)c(-c3cccc(F)c3)nc3cncnc32)c1`, the Potency is reported as inconclusive: 12.6 µM [rising, partial curve].
In the case of `Cc1cccn2cc(CCNS(=O)(=O)c3ccc4c(c3)OCCO4)nc12`, the Potency is reported as active: 10 µM.
In the case of `COc1ccc(O)c(C(=O)c2cnn(C(=O)c3cc(C)oc3C)c2)c1`, the activity change, negative = inhibition is reported as inconclusive: -11.4%.
In the case of `CC1=C(C#N)C(c2ccc3ncccc3c2)C(C#N)=C(C)N1`, the “activity change, negative = inhibition” value is reported as inactive: 16.6%.
In the case of `COCCNc1ccnc(-c2ccccc2CN(C)C)n1`, the “activity change, negative = inhibition” value is reported as inactive: 0.273%.
In the case of `Cc1cc(NCCCN2CCOCC2)n2ncc(-c3ccccc3)c2n1`, the Potency is reported as inconclusive: 20 µM [rising, single point].
For `Cc1[nH]n2c(=O)c3c(nc2c1-c1ccccc1)CCC3`, the “activity change, negative = inhibition” value was inactive: 24.2%.
For `O=C(OCN1C(=O)c2ccccc2C1=O)c1ccc2c(=O)n3c(nc2c1)CCC3`, the Potency was inconclusive: 15.8 µM [rising, single point].
For `O=C1C(=O)N(Cc2ccco2)C(c2cccc(Cl)c2)/C1=C(\O)c1ccc2c(c1)OCCO2` (configuration not stated), the activity change, negative = inhibition was inconclusive: -11.6%.
With `c1ccc(CNc2ncnc3ccc(-c4ccc5c(c4)OCO5)cc23)cc1` the activity change, negative = inhibition was inconclusive: 1.4%.
For `COc1ccc(C(=O)Nc2cccc(C)c2)cc1S(=O)(=O)N1CCOCC1`, the “activity change, negative = inhibition” value was inactive: 5.49%.
